# Values joined by “and” are separate entries in the source; they are usually repeats but may differ in a detail not shown here. Identical values can stand only once. About 230 (0.21%) of roughly 110,000 compounds showed an effect of 50% or more. This is one part of the list.
# Molecular target: DPAP1 (Plasmodium falciparum, UniProt Q8IIJ9)
# Assay: primary screen, percent inhibition; read by cleavage of a fluorogenic dipeptide substrate; higher = more effect of the substance
# Parameters: species or system P. falciparum D10 trophozoite lysates; single well
# 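Also: 30 min substrate incubation versus DMSO and 10 µM JCP410 controls.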
# DPAP1, sequence (Q8IIJ9 whole entry, looked up): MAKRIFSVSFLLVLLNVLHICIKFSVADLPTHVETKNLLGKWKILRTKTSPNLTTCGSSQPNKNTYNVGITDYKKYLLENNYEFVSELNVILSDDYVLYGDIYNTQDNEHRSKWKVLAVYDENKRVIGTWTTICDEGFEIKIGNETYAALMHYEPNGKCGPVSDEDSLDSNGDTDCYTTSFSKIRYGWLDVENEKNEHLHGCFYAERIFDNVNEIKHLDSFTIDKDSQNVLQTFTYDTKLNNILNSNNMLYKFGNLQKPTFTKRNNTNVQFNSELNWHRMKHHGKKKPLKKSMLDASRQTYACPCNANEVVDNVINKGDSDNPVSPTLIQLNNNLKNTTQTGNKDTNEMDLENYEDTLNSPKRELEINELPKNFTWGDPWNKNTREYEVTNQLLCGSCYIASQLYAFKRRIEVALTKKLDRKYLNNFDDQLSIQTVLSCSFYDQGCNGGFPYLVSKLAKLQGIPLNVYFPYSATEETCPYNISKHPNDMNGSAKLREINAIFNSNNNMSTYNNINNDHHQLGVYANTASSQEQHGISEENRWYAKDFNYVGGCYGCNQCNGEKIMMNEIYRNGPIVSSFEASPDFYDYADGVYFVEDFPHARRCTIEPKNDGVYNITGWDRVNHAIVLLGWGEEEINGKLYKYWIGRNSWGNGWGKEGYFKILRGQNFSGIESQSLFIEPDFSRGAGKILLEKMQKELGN
row,SMILES,% Inhibition @ 10 uM
1,Cc1ccc(C(=O)Nc2sc3c(c2C(N)=O)CCC(C)C3)o1 (centres unmarked),2.92%
2,O=C(O)c1cccc(COc2ccc(Cl)cc2Cl)c1,6.01%
3,NC(=O)COc1ccc(-c2ccccc2)cc1,3.25%
4,CCN(Cc1ccccc1)C(=O)Cn1cc(S(=O)(=O)NC)c(S(=O)(=O)NC)c1,-4.18%
5,COc1ccc(-c2cs/c(=N\c3ccccc3C)n2CCO)cc1,0.83%
6,COc1cc2c(cc1OC)-c1nnc(C)n1C1(CCCC1)C2,4.66%
7,COc1ccc(CCNC(=O)/C=C/c2ccco2)cc1,3.47%
8,COc1cccc2c1OC1(C)CC2C(S(=O)(=O)c2ccc(C(C)(C)C)cc2)C(=O)N1C (centres unmarked),-2.67%
9,O=C1/C(=C/c2ccc(F)cc2)CCC1C1CCCC1 (centres unmarked),23.4%
10,O=C1C2CCCCN2C(=O)N1CCCCN1CCN(c2ccc(F)cc2)CC1 (centres unmarked),-5.81%
11,CCCCNC(=O)c1cnn2c(C(F)F)cc(-c3ccc(OC)cc3)nc12,1.67%
12,CCCS(=O)(=O)N1CCC(C(=O)NCCCN2CCCCC2C)CC1 (centres unmarked),4.81%
13,COc1ccc(CCCC(=O)Nc2ccc3ccccc3c2)cc1,-1.84%
14,CC1CCN(CC(=O)Nc2nc(-c3ccccc3)cs2)CC1,-7.15%
15,COc1cc(C(=O)Nc2c(C)nn(Cc3ccc(Br)cc3)c2C)cc(OC)c1OC,0.35%
16,O=[N+]([O-])c1ccc(CNc2ccc(F)c(Cl)c2)s1,3.19%
17,CCn1c(C(=O)O)c(CNCCc2c[nH]c3ccccc23)c2ccccc21,3.54%
18,CCC(C)NS(=O)(=O)c1ccc(OCC(=O)Nc2cc(C(F)(F)F)ccc2Cl)cc1 (centres unmarked),-1.6%
19,COc1cccc(C2=N/C(=C\c3cc(Br)ccc3OC)C(=O)O2)c1,0.434%
20,CCOC(=O)C1=C(NC(=O)CC)c2ccccc2CC12CCCCC2,4.15%
21,CCCOc1cccc(C(=O)Nc2nc(-c3ccc(F)cc3F)cs2)c1,5.55%
22,COc1ccc(-c2[nH]nc3nc(-c4ccc(O)c(OC)c4)cc(C(=O)O)c23)cc1,-2.97%
23,COc1ccc(C2=NCC(S)=Nc3ccc(Cl)cc32)cc1OC,1.88%
24,O=C(O)COc1c(Br)cc(C=C2C(=O)NC(=O)NC2=O)cc1Br,-2.26%
25,Cc1ccc(CNC(=O)CN(C)S(=O)(=O)c2c(C)cc(C)cc2C)cc1,-1.16%
26,CC(CN(C)CCc1ccccn1)c1ccccc1 (centres unmarked),-4.04%

row,SMILES,% Inhibition @ 10 uM
1,O=C(c1ccccc1Cl)N1CCN(CCN2C(=O)c3cccc4cccc(c34)C2=O)CC1,-0.622%
2,CSc1nc(N)c(C#N)c(-c2ccc(Br)cc2)c1C#N,-0.906%
3,Cc1nn(CC(=O)N2CCN(c3ccccn3)CC2)c(=O)c2c1sc1ccccc12,1.31%
4,Cc1ccccc1OCC(=O)NCCN1CCCC1,-1.04%
5,CN(Cc1ccccc1)C(=O)Cn1cc(S(=O)(=O)N2CCCC2)c(S(=O)(=O)N2CCCC2)c1,3.2%
6,CSc1nc(-c2ccc(C)cc2)nc2c1Cc1c(CO)cnc(C)c1O2,1.68%
7,COc1ccc(N(CC(=O)N2CCN(c3ccccc3)CC2)S(=O)(=O)c2ccccc2)cc1OC,-7.69%
8,O=C(NCc1cccnc1)c1cc2nc(-c3cccs3)cc(C(F)(F)Cl)n2n1,2.95%
9,Cc1oc(-c2ccc(Cl)cc2)nc1CS(=O)CC(=O)NCCN1CCOCC1 (centres unmarked),0.689%
10,Cc1nc2c(c(C)c1CCC(=O)N1CCC(Cc3ccccc3)CC1)c(=O)n(C)c(=O)n2C,2.12%
11,CCCC(=O)Nc1nnc(S(=O)(=O)N(C)Cc2ccco2)s1,-10.1%
12,Cn1c(=O)[nH]c(=O)c2c1nc(S)n2CC(O)COc1ccc2ccccc2c1 (centres unmarked),30.7%
13,CS(=O)(=O)C1=NSC2=NC(=O)/C(=C\c3ccc(OCc4ccccc4F)cc3)C(=N)N21,-1.58%
14,CCOC(=O)N1CCN(C(=O)COc2cc(C)c(Cl)c(C)c2)CC1,5.75%
15,COc1cccc(C2=NN(C(C)=O)C(C)(C)O2)c1,0.907%
16,O=c1oc2ccc(Cl)cc2cc1-c1nc(-c2ccc3c(c2)OCO3)no1,1.93%
17,O=C(NCCCc1nc2ccccc2n1CCCOc1ccc(Cl)cc1)c1ccco1,6.78%
18,CCOc1cc(S(=O)(=O)n2c(C)nc3ccccc32)ccc1F,3.93%
19,C=CCNC(=O)C1CCCN(S(=O)(=O)N(CC)CC)C1 (centres unmarked),-2.26%
20,Cc1ccccc1OCC(O)CN1C(=O)c2ccccc2C1=O (centres unmarked),6.91%
21,COc1ccc(OC)c(NC(=O)c2sc3nc(-c4ccc(F)cc4)ccc3c2N)c1,0.161%
22,Cc1ccc(CCN2CC(C(=O)NCc3ccccc3Cl)CC2=O)cc1 (centres unmarked),3.24%
23,O=C(O)C1CCN(S(=O)(=O)c2ccc(C(F)(F)F)cc2)CC1,9.57%
24,CCc1c(C#N)c(S)nc2c1CCC2,88.7%
25,Cc1cccc(CS(=O)(=O)Cc2ccc(C(=O)NCCN3CCCCC3C)o2)c1 (centres unmarked),-4.53%
26,O=C(CN1CCCCC1)Nc1ccc2c(c1)OCO2,-3.09%

row,SMILES,% Inhibition @ 10 uM
1,CN1CCN(CC(=O)Nc2ccccc2)CC1,0.843%
2,COc1ccc(-c2c(Cc3ccccc3)nn3c(O)c4c(nc23)CCC4)cc1,-7.19%
3,CCCCc1c(C(=O)O)cc(OC)cc1C(=O)O,-4.01%
4,CCC(Cc1ccccc1)NC(=O)CN1C(=O)CSc2nc(C)cc(C)c21 (centres unmarked),1.03%
5,CC(C)CC(=O)Nc1ccc(N2CCOCC2)c2nonc12,-2.88%
6,Cc1ccnc(NC(=O)C(C)Oc2ccccc2C)c1 (centres unmarked),2.93%
7,C=CCN1CCN(c2ccncc2S(=O)(=O)NCC)CC1,-1.59%
8,CCC1CCCCN1CCCNC(=O)C1c2cc(OC)c(OC)cc2C(=O)N(C)C1c1cccs1 (centres unmarked),2.59%
9,COc1ccc(CNC2CCN(C(C)=O)CC2)cc1,3.48%
10,Brc1ccccc1OCCCCCn1ccnc1,3%
11,CNc1oc(Cc2cccc3ccccc23)nc1C#N,-2.83%
12,O=C(CN(Cc1ccccc1)S(=O)(=O)c1ccc(F)cc1)Nc1cccc2ccccc12,-6.27%
13,COc1cccc(Nc2nc(-c3ccc(Cl)cc3)cs2)c1,-6.18%
14,O=C(Cc1ccc(Cl)cc1)Nc1ccc(S(=O)(=O)Nc2ccc(Cl)cc2)cc1,7.76%
15,Cc1ccc(Cl)cc1N(CC(=O)Nc1ccc2c(c1)OCO2)S(=O)(=O)c1ccccc1,-5.88%
16,COc1cccc(C2C(C(C)=O)=C(O)C(=O)N2c2ccc(C)c(Br)c2)c1 (centres unmarked),3.53%
17,CCOc1ccc(N(CC(=O)Nc2c(C)cccc2C)S(=O)(=O)c2ccccc2)cc1,-3.75%
18,c1ccc(N2CCN(Cc3c[nH]c4ccccc34)CC2)nc1,-0.405%
19,O=C(Nc1cccc2nsnc12)c1cc(Cl)ccc1NS(=O)(=O)c1cccc2nsnc12,4.88%
20,COc1ccc(/N=c2\sc(C)c(-c3ccc(OC)cc3)n2CCO)cc1,2.22%
21,CC(C)C[C@H](NC(=O)[C@@H]1CCCN1C#N)C(=O)OCc1ccccc1,-3.97%
22,Cc1ccccc1C1C(CN2CCOCC2)=C(c2ccccc2)Oc2ccccc21 (centres unmarked),1.54%
23,Cc1nc2nc(SCC(=O)NC3CCCC3)nn2c(C)c1Cc1cccc(Cl)c1,0.457%
24,CN(C)CCN(C)Cc1cccc(C(F)(F)F)c1,-0.856%
25,CCCCc1ccc(-c2nc(N)sc2C)cc1,-0.132%
26,COc1cc(C2C(C#N)=C(N)N(c3ccccc3)C3=C2C(=O)CCC3)cc(OC)c1OC (centres unmarked),-1.08%

row,SMILES,% Inhibition @ 10 uM
1,CCOC(=O)C1=C(C)NC(=O)CC1c1ccccc1OC (centres unmarked),2.92%
2,CC(C)Oc1ccc(C(=O)Nc2ccc(CN3CCOCC3)cc2)cc1,2.51% and -1.88%
3,Cl/C(=C\c1ccccc1)CN1CCOCC1,2.91%
4,O=C1CSC(c2ccc(F)cc2)N1c1ccccc1 (centres unmarked),0.64%
5,c1cncc(-c2nc3c4ccccc4nc(NCCc4c[nH]c5ccccc45)n3n2)c1,-6.07%
6,COc1ccc(CCNS(=O)(=O)c2ccc(-n3cnnn3)c(OC)c2)cc1OC,-2.84%
7,O=C(C1=C(O)C(=O)N(c2nccs2)C1c1cccs1)c1cccs1 (centres unmarked),-0.0619%
8,Cc1ccc(-c2nn3c(C)cc(C)nc3c2C#N)cc1,4.3%
9,COC(=O)c1ccc(C(=O)NCCCCO)cc1,-0.615%
10,COc1ccccc1NC(=O)C1CC(=O)N(C)/C(=N/c2ccc(C)c(C)c2)S1 (centres unmarked),-1.95%
11,COc1ccc(C)cc1NC(=O)c1ccccc1Br,4.22%
12,O=C(NCc1ccco1)c1ccc(Br)o1,0.986%
13,CC(=O)c1cccc(NC(=O)c2ccc3c(c2)C(=O)N(c2ccccn2)C3=O)c1,3.01%
14,COc1cc(SC)ccc1C(=O)NC1CCCCCCC1,-3.9%
15,Cc1ccc(/C=c2\sc3nc(-c4ccccc4Br)nn3c2=O)o1,2.24%
16,O=C(O)C(c1ccccc1)C(O)c1ccccc1 (centres unmarked),-1.61%
17,CC1CCCC(C)N1C(=O)c1ccc([N+](=O)[O-])cc1 (centres unmarked),4.66%
18,CCOc1ccccc1N1CCN(Cc2cc(C)ccc2C)CC1,-0.0404%
19,CCN(CC)CCNc1nc2cc(OC)c(OC)cc2c2nc(-c3ccccc3)nn12,0.981%
20,O=C1CC(CNC(=O)N2CCN(C(c3ccccc3)c3ccccc3)CC2)CN1Cc1ccccc1 (centres unmarked),2.98%
21,COC(=O)C1=CN(CC2CCCO2)C=C(C(=O)OC)C1c1ccccc1Cl (centres unmarked),-5.28%
22,COc1cc(OC)cc(-n2nnc(-c3nc(-c4ccccc4)no3)c2N)c1,-1.35%
23,CC(C)(C)c1ccc(OCCCCn2ccnc2)cc1,1.83%
